We go through 70 compounds from PubChem BioAssay AID488969 (Vanderbilt High Throughput Screening Facility, 2010).

The full ranking holds about 110,000 compounds; the median of “z-score” is about -0.1, and the highest 2% start at about 2. The list shows a part of the results.

The assay concerns the target Metabotropic glutamate receptor 8 (Rattus norvegicus) (UniProt P70579). Briefly: rat mGluR8 modulators via GIRK flux, primary screen, cell-based, thallium flux, HTS (AID 488969). Particulars: HEK293 rat mGluR8, GIRK (G protein-gated inwardly rectifying potassium channel) thallium flux, FluoZin2; at 10 µM; stronger effect = higher value; submaximal glutamate (EC20) added with thallium.
Sequence of UniProt P70579 (P70579 whole entry, looked up): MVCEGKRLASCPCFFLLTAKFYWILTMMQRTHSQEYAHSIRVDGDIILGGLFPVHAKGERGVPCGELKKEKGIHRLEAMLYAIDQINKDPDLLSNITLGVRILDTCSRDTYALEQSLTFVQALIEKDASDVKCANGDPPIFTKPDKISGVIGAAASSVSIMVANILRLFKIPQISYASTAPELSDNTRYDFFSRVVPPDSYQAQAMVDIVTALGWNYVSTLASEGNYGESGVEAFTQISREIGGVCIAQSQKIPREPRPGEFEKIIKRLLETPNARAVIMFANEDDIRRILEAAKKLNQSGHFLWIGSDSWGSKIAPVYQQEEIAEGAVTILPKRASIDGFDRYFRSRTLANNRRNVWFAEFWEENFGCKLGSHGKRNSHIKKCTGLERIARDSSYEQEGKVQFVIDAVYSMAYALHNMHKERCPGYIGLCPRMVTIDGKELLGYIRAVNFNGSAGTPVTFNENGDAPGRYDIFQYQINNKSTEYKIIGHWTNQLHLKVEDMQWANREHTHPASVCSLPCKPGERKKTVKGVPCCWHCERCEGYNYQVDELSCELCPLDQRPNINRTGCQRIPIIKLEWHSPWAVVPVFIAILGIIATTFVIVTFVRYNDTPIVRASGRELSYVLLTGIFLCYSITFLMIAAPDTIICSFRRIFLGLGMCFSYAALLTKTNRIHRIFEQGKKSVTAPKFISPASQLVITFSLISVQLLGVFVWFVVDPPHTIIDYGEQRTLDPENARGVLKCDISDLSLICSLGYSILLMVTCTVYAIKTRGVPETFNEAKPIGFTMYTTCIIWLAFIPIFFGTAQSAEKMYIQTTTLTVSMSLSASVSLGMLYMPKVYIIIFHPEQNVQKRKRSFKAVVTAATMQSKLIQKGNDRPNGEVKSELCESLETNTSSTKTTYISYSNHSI
In turn, `CCc1c(C)sc(NC(=O)c2ccco2)c1C(=O)N1CCCCC1` had a z-score of -0.182.
Under `CCc1nnc(NC(=O)c2cccc(S(=O)(=O)N3CC(c4ccccc4)CC3=O)c2)s1` (stereo not given) stands -0.73; under `CCCCCOc1ccccc1C(=O)NCC(=O)O`, -1.66.
Under `Fc1ccc(Nc2nc(-c3ccncc3)nc3ccccc23)cc1F` stands -0.000763.
The compound `CCCCCCCCC(=O)NC(NC(=S)N1CCOCC1)C(Cl)(Cl)Cl` (stereo not given) had a z-score of 0.723.
Under `Cc1cccc(NC(=O)COc2ccccc2)c1` stands 0.29; under `CCOC(=O)c1[nH]c2ccc(OC)cc2c1NC(=O)C(C)N1CCSCC1` (stereo not given), -0.859.
Under `CN1CCN(c2ccccc2NC(=O)c2ccc(OCc3ccccc3)cc2)CC1` stands -0.384.
Under `CCOC(=O)C(NC(=O)c1ccccc1Cl)(Nc1ccc(C)c(C)c1)C(F)(F)F` (stereo not given) stands -1.8.
Regarding `O=C(N/N=C/c1cccn1-c1ccc([N+](=O)[O-])cc1)C(O)c1ccccc1` (stereo not given), the z-score is 0.181.
As for `COc1ccc(N2CCN(C(=O)COc3ccccc3)CC2)cc1`, the z-score stood at 0.752.
Under `CCCn1c(Nc2ccccc2)nc2ccccc21` stands -0.0673.
Under `Cc1cc(NCCCn2ccnc2)n2nc(C)c(-c3ccc(Cl)cc3)c2n1` stands 0.932.
In turn, `COCC(C)NC(=O)c1cc(-c2ccc(O)cc2)on1` (stereo not given) returned a z-score of 0.279.
Under `O=Cc1ccc(N2CCCCCC2)cc1` stands -0.151; under `Cc1ccc(-n2c(=O)[nH]c3c(C(N)=O)nc(CC(C)C)nc32)cc1`, -0.0991.
Under `CC(C)OCCCNC(=O)c1cc(Sc2ccc(F)cc2)nc2ccccc12` stands 1.28; under `CCOC(=O)N1CCN(C(=O)CSc2nnc(C3COc4ccccc4O3)o2)CC1` (stereo not given), 0.978; under `Cc1ccc(-c2cc(=O)[nH]c3ccccc23)cc1`, -1.
Under `O=C(NC12CC3CC(CC(C3)C1)C2)c1ccc(S(=O)(=O)N2CCOCC2)cc1` stands 0.117; under `N=c1n(CC(=O)c2ccc([N+](=O)[O-])cc2)c2ccccc2n1Cc1ccccc1`, 0.833.
For `CC(=O)Cc1nsc(NC(=O)c2cc(-c3ccccc3Cl)oc2C)n1`, the z-score is 0.0117.
Under `O=C(Nc1cc(C(F)(F)F)ccc1-n1cncn1)c1ccc(Br)cc1` stands 0.494; under `CCn1c(=N)n(CC(O)c2ccccc2)c2ccccc21` (stereo not given), 1.55; under `Cc1cc(S(=O)(=O)N2CCCC2)ccc1OCC(=O)N1CCOCC1`, 0.0243.
Under `COc1ccc(-c2csc(/C(C#N)=C(\O)CSc3nccn3C)n2)cc1OC` stands 0.0139.
Under `CCn1c(/N=C/c2ccccc2NS(=O)(=O)c2ccc(C)cc2)nc2ccccc21` stands 0.0733.
In the case of `N#C[C@@H]1[C@@H]2C(=O)N(c3ccc4c(c3)OCCO4)C(=O)[C@@H]2C2c3ccccc3C=CN21` (stereo not given in full), the z-score is -1.07.
Under `O=C(COC(=O)c1ccc2c(=O)n3c(nc2c1)CCC3)Nc1ccccc1F` stands -0.441; under `O=C1c2ccccc2NC(c2ccccn2)N1c1ccccc1F` (stereo not given), -0.415.
Under `O=C(NC(Cc1c[nH]c2ccccc12)C(=O)Nc1ccc(F)cc1)c1cccs1` (stereo not given) stands -0.565; under `Fc1cccc(NC(=S)Nc2ccc(Br)cc2)c1`, 0.843; under `COc1cc(NS(=O)(=O)c2ccc(NC(C)=O)cc2)cc(OC)c1`, -0.348.
For `COc1cccc(-c2nnn(CC(=O)Nc3cc(OC)c(NC(=O)c4ccco4)cc3OC)n2)c1`, the z-score was -0.347.
Under `CCOc1ccc(Cl)cc1/C=N/O` stands -0.395.
In the case of `O=c1[nH]c(CSc2nnc(-c3ccccc3)n2C2CCCCC2)nc2ccccc12`, the z-score is -1.12.
Under `CCC1CCC2(CC1)NC(=O)N(CC(=O)c1c(C)[nH]c3ccccc13)C2=O` (stereo not given) stands 0.351; under `CCC(=O)N1c2ccccc2-c2nnc(SC)nc2OC1c1ccc(OC)c(OC)c1` (stereo not given), -0.654.
Under `N#CC1=C(c2ccccc2)/C(=C/c2ccccc2)OC1=O` stands 1; under `CC(=O)N1CCc2cc(S(=O)(=O)NCCC(=O)NC3CCCc4ccccc43)ccc21` (stereo not given), -1.17.
Under `Cn1c(=O)n(C)c2cc(C(=O)Nc3ccc4c(c3)OCO4)ccc21` stands -0.0163; under `Cc1ccc(CN2C(=O)N/C(=C/c3cc(C)n(-c4ccccn4)c3C)C2=O)cc1`, -0.247; under `Cc1ccc(C(=O)Nc2cc(C)c(OCC(=O)N3CCOCC3)c(C)c2)cc1`, -0.0178.
`COc1cc(/C=N/Nc2nc(Nc3ccccc3)nc(-n3nc(C)cc3C)n2)cc(OC)c1OC`: the z-score was -0.633.
Under `Cc1ccc(Nc2nc(=O)c3cccnc3s2)cc1` stands 0.389; under `CS(=O)(=O)c1ccc(C(=O)Nc2cc(S(C)(=O)=O)ccc2Cl)cc1`, -0.245; under `C=CCn1c(SCC(=O)NC(=O)NCCC)nnc1C1CCCCC1`, 0.189.
In turn, `Cc1csc(C(=O)O)c1-c1c(C)csc1C(=O)O` showed a z-score of -1.45.
Under `O=C(CNc1cc(S(=O)(=O)N2CCCC2)ccc1OCC(F)(F)F)Nc1ccc(SC(F)F)cc1` stands -0.207; under `CCC1(CC)NC(=S)N(Nc2ccccc2)C1=O`, -0.845.
Under `COc1cccc(-c2cc(C(F)(F)F)c3c(N)c(C#N)sc3n2)c1` stands -0.0936.
Under `CNC(=O)c1c(NC(=O)c2nc3ccccc3s2)sc2c1CCC2` stands -0.521; under `O=C(O)CCn1[nH]c(=O)c2ccccc2c1=O`, -0.184.
`Cc1cc(C)c(S(=O)(=O)N(C)CC(=O)N2CCCCC2)c(C)c1` gave a z-score of 0.255.
Under `CC1(C(=O)c2ccccc2)C2c3c(ccc4ccccc34)OC(=O)C21C(=O)N1CCOCC1` (stereo not given) stands 0.0222; under `Cc1cc(C)c(S(C)(=O)=O)c(Oc2ccccc2C)n1`, -0.0363; under `COc1ccc(/C(=C/c2ccc(OC(F)F)c(OC)c2)C(=O)O)cc1OC`, -0.452.
Under `O=c1oc(/C=C/c2ccco2)nc2sc3c(c12)CCC3` stands 0.11; under `CCOC(=O)CN1C(=O)CN(c2ccc(C)cc2)C1=O`, -0.161; under `Cc1cccc(NC(=O)CSc2ncnc3nc[nH]c23)c1`, -0.964.
Under `COc1cc(CNc2ccc(N3CCCC3)cc2)ccc1OCc1ccccc1F` stands -0.289; under `O=C(COc1ccccc1)NNC(=O)c1cc2ccccc2oc1=O`, -0.00605.
On to `COc1ccc(/C=N/NC(=O)c2ccc(Cn3cc([N+](=O)[O-])cn3)o2)cc1O`, for which the z-score is -0.561.
Under `CCn1c(CN2CCN(C(=O)c3ccco3)CC2)nc2c1c(=O)n(C)c(=O)n2C` stands -0.377; under `Cc1noc(C)c1C(=O)OCC(=O)NC1CC1`, -0.106; under `CC(C)(C)N1NC(=O)Nc2ccccc2C1=O`, 0.147.
`Cc1cccc(-n2cc(-c3ccccc3)c3c(NN4CCOCC4)ncnc32)c1` gave a z-score of 0.0634.
Under `O=C(Nc1ccccc1Br)C1CCC(=O)N1Cc1ccccc1Cl` (stereo not given) stands 0.19.
Compound `CCCCOc1cc(=O)[nH]c(=O)[nH]1` displayed a z-score of 0.151.
Under `CCOC(=O)c1nnn(-c2ccccc2C#N)c1C` stands 0.453.
